The record followed here is PubChem BioAssay AID1346428 (National Center for Advancing Translational Sciences (NCATS), 2018).

The structures appear in SMILES notation. Hit rate of the full screen: of about 48,000 compounds, about 1,200 (2.5%) were called active. About 2% were inconclusive and are not listed.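 The calls were made as follows: active = activation of at least 60% and not above a set upper limit (about 1 call in 100 departs from these limits); inconclusive = activation of 40% to 60%, or above that upper limit; inactive = activation under 40%.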 Some of the results follow.

Chain of UniProt O75388 (O75388 whole entry, looked up): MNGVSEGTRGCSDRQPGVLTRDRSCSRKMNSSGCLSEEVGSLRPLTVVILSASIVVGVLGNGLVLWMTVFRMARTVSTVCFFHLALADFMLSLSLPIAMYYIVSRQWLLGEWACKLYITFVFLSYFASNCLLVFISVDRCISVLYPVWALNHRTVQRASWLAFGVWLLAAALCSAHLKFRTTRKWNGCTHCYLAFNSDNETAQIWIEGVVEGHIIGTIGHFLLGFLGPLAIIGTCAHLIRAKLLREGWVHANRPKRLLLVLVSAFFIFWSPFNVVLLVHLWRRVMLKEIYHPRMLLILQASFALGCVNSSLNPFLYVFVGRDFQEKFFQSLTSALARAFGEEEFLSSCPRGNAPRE

The target of the assay is Probable G-protein coupled receptor 32 (Homo sapiens) (UniProt O75388). The experiment in a line: qHTS for Agonists of Human Resolvin D1 Receptor DRV1. Also: 0% is about no effect. The following applies: CHO-K1 GPR32 beta-arrestin PathHunter luminescence, 90 min; at 76.9 µM; active compounds read high; zero percent set by DMSO-only wells. In short, it runs like this:
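Readings come from a cell-based beta-arrestin complementation format: CHO-K1 GPR32 stable cells (2,500/well) treated 90 min with compounds, then beta-Gal substrate added for 1 h before chemiluminescence imaging.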
Turning to `COc1ccccc1N1CCN(c2ncnc3c2cnn3-c2ccc(C)cc2)CC1`, the activation is inactive: 0.586%. With `COCCn1c(SCC(=O)c2ccc(C)cc2)nc2cc(C(=O)NC3CCCC3)ccc2c1=O`, the activation was inactive: 5.98%. As for `FC(F)(F)c1cc(Nc2nc3ccccc3c3nncn23)ccc1Cl`, the activation was inactive: -3.3%.

Take `O=C(NCCc1ccccc1)C1CCN(c2nc3ccccc3nc2C(F)(F)F)CC1`: the activation was inactive: -20.9%. Regarding `CCOc1ccc(N(CC)S(=O)(=O)N2CCCC(C(=O)Nc3ccc(OC)c(Cl)c3)C2)cc1` (stereo unspecified), the activation is inactive: -8.84%. Consider `COc1cccc(NC(=O)CSc2c3c(nc4ccccc24)CCCC3)c1`, for which the activation was inactive: 37.9%. Take `Cc1cccc(NC(=O)CN2C(=O)CSc3ccc(S(=O)(=O)N4CCCC4)cc32)c1C`: the activation was inactive: -14.6%.

With `COc1ccc(-c2cc3nc(C)c(CCC(=O)NC(C)c4ccccc4)c(C)n3n2)c(OC)c1` (stereo unspecified), the activation was inactive: -0.868%. With `COc1ccc(-c2onc(C)c2C)cc1S(=O)(=O)N1CCN(c2cc(C)ccc2C)CC1`, the activation was inactive: -2.64%. In the case of `Cc1c(Cl)ccc2sc(N3CCN(C(=O)C4CC4)CC3)nc12`, the activation is active: 76.5%. As for `COC(=O)CC(=O)CSc1nc2cc(C(=O)NCC(C)C)ccc2c(=O)n1CCc1ccccc1`, the figure is inactive: -15.9%. In the case of `O=C(Nc1ccccc1C(F)(F)F)N1CC=C(c2c[nH]c3ccccc23)CC1`, the activation was inactive: -20.4%. The value for `Cc1nn(C(=O)c2cccc([N+](=O)[O-])c2C)c(C)c1S(=O)(=O)N1CCCCCC1` was inactive: -9.71%; that for `CC1CCN(S(=O)(=O)c2ccc3c(c2)CCN3C(=O)Nc2ccc(Br)cc2F)CC1` was inactive: -29.1%; that for `Cc1cccc(NC(=O)N2CCC(CN3CCCCCC3)CC2)c1C` was inactive: -18%. As to `CCc1ccccc1NC(=O)Cn1nc(N2CCN(c3ccccc3OC)CC2)ccc1=O`, the activation is inactive: 40.8%. For the compound `CCOc1ccccc1C(=O)N1CCC(c2nc3ccccc3o2)CC1`, the activation was inactive: 0.637%. On to `COc1ccc(OC)c(NC(=O)CC(=O)Nc2ccc3nc4n(c(=O)c3c2)CCCCC4)c1`, for which the activation was inactive: -6.22%.

In the case of `Cc1nc(SCC(=O)Nc2ccc(C(=O)O)cc2)n[nH]1`, the activation is inactive: 1.6%. The value for `Cc1ccc(C2CCN(C(=O)c3cnn(-c4ccc(C)c(C)c4)c3C3CCN(C(=O)OC(C)(C)C)CC3)C2)cc1` (stereo unspecified) was inactive: -8.43%; that for `CN(C)CCCO[C@@H]1[C@H]2OC(C)(C)O[C@H]2O[C@@H]1C(O)CO` (stereo partly specified) was inactive: 2.72%; that for `O=C1c2ccccc2S(=O)(=O)N1CCCCN1CCN(c2ncccn2)CC1` was inactive: 0.0021%. As for `Cc1cc(C)c(OCCOCCn2c(-c3ccc(Cl)cc3)nc3ccccc3c2=O)c(C)c1`, the figure is inactive: -8.9%; as for `Cc1cccc(C(C)C)c1NC(=O)c1ccc2c(c1)CCN2S(C)(=O)=O`, inactive: 6.1%; as for `Cc1nn2c(=O)cc(COC(=O)c3cccc(NC(=O)c4ccc(F)cc4)c3)nc2s1`, inactive: 20.5%. As for `Cc1ccc(Cl)cc1NC(=O)Cn1c(=O)n(C(C)C)c(=O)c2oc3ccccc3c21`, the activation was inactive: -9.12%. Regarding `Cc1cccc(Nc2nnc(-c3ccc(C)c(S(=O)(=O)N4CCN(C)CC4)c3)c3ccccc23)c1`, the activation is inactive: -22.5%. The value for `Cc1ccc(-n2nc(-c3ccccc3)c3cnc4cc5c(cc4c32)OCO5)cc1C` was inactive: 14%.

As to `CC(C)CCNC(=O)C(=O)Nc1c2c(nn1-c1ccc(Cl)cc1)CSC2`, the activation is inactive: -14.7%. As for `CCn1c(CN2CCC(C)CC2)nc2cc(NC(=O)c3ccc([N+](=O)[O-])cc3)ccc21`, the activation is inactive: 4.54%. The value for `O=C(O)CCc1ccc(-c2ccccc2)n1-c1ccc(C(=O)O)cc1` was inactive: -2.17%. The value for `CC(=O)Nc1cccc(NC(=O)CSc2ccc(-c3sc(-c4ccccc4)nc3C)nn2)c1` was inactive: 22.3%.

Regarding `COc1cccc(NC(=O)c2oc3ccc(S(=O)(=O)N4CCCCCC4)cc3c2C)c1`, the activation was inactive: 6.33%. For the compound `CCOc1ccc(S(=O)(=O)N2CCC(c3ccncc3)CC2)cc1`, the activation was inactive: 13%. `Cc1cc(C)n(-c2nc(C)c(C)c(=O)n2CC(=O)Nc2cccc([N+](=O)[O-])c2)n1`: the activation was inactive: -14.6%. As for `CCOC(=O)c1ccc(NC(=O)Cn2c3ncccc3c(=O)n2-c2ccc(C)c(C)c2)cc1`, the figure is inactive: -21.4%. The value for `COc1ccc(-c2cc(C(=O)NCCc3ccc(OC)c(OC)c3)c3c(-c4ccc(F)cc4)[nH]nc3n2)cc1` was inactive: 8.97%. The value for `COC(=O)c1ccccc1NC(=O)c1nn(-c2ccc(OC)cc2)c(=O)c2c1c1ccccc1n2C` was inactive: -10.4%.

Consider `CCCCCCCCCCCCCCCCCC(=O)OC(CC(=O)O)C[N+](C)(C)C` (stereo unspecified), for which the activation is inactive: 15.8%. The value for `COc1cccc(NC(=O)C2CCN(S(=O)(=O)c3ccc4[nH]c5c(c4c3)CCCCC5)CC2)c1` was inactive: 0.0371%; that for `CCOC(=O)C(C)Sc1nc(-c2ccccc2)ccc1C#N` (stereo unspecified) was inactive: 21.4%; that for `COc1ccccc1NC(=O)C1CCCN(c2ncnc3onc(-c4ccc(F)cc4)c23)C1` (stereo unspecified) was inactive: -8.47%. As for `CCC(C)NC(=O)c1c(C)oc2nc(C)nc(N3CCOCC3)c12` (stereo unspecified), the figure is inactive: -11%; as for `Cc1ccc(NC(=O)c2ccc3snnc3c2)cc1C`, inactive: 27.2%; as for `Cc1cc(Nc2ccc(Br)c(C)c2)n2nc(-c3ccco3)nc2n1`, inactive: 13.9%. As for `COc1cccc(N2CCN(c3ncnc4c3c(-c3ccccc3)cn4-c3cccc(C(F)(F)F)c3)CC2)c1`, the figure is inactive: -29.9%. For the compound `CCN(CC)C(=O)Cn1c(=O)n(CCc2ccccc2)c(=O)c2ccccc21`, the activation was inactive: -3.05%. The value for `CCCNC(=O)N1[C@H](c2cccs2)[C@@H](C)C(=O)[C@@H](C)[C@@H]1c1cccs1` was inactive: -16.5%.

As to `CCOC(=O)Cc1c(C(=O)OCC)nnc2c(-c3ccccc3)c(C)nn12`, the activation is inactive: -50%. As for `CC(=O)c1ccc(NC(=O)CC2Oc3ccc(C)cc3NC2=O)cc1` (stereo unspecified), the figure is active: 64.8%; as for `COCCNc1oc(-c2ccc(OC)cc2)nc1C#N`, inactive: -0.164%; as for `CCOC(=O)c1cccc(NC(=O)N2CC=C(c3c[nH]c4ccccc34)CC2)c1`, inactive: -14.4%. The value for `COc1ccc(OC)c(NC(=O)N2CC3CCCN3c3ccccc32)c1` (stereo unspecified) was inactive: 11.7%; that for `CN[C@H](CC(C)C)C(=O)N[C@H]1C(=O)N[C@@H](CC(N)=O)C(=O)N[C@@H]2C(=O)N[C@H]3C(=O)N[C@H](C(=O)N[C@H](C(=O)O)c4cc(O)cc(O)c4-c4cc3ccc4O)[C@H](O)c3ccc(c(Cl)c3)Oc3cc2cc(c3O[C@@H]2O[C@H](CO)[C@@H](O)[C@H](O)[C@@H]2O[C@H]2C[C@](C)(N)[C@H](O)[C@H](C)O2)Oc2ccc(cc2Cl)[C@H]1O` was inactive: -6.85%. For `CCOC(=O)c1ccccc1NC(=O)COC(=O)CC(C)(C)CC1=NS(=O)(=O)c2ccccc2N1`, the activation is active: 84.4%.

In the case of `Cc1cc(C)n2nc(CNS(=O)(=O)c3ccccc3)nc2n1`, the activation was inactive: 29%. With `COc1ccc(S(=O)(=O)NCC(c2ccc(N(C)C)cc2)N2CCc3ccccc32)cc1F` (stereo unspecified), the activation was inactive: -35.2%. As for `CCCN(C(=O)Nc1cn(CC(C)C)c(=O)c2ccccc12)c1ccc(F)cc1`, the figure is inactive: -15.4%; as for `O=C(NCC(c1ccco1)S(=O)(=O)c1cccs1)c1ccc(Cl)cc1` (stereo unspecified), inactive: 1.18%. Regarding `Cc1ccc2oc(=O)n(CCNC(=O)Nc3ccc(Cl)cc3)c2c1`, the activation was inactive: 25.9%.

As for `Cc1cc(C(=O)NCc2ccccc2Cl)c2c(C)nn(-c3cccc(F)c3)c2n1`, the activation is inactive: -10.5%. With `CC(=O)N1CCc2c(sc3c2c(=O)n(-c2ccc(C)cc2)c(=O)n3Cc2ccccc2C)C1`, the activation is inactive: -5.04%. With `CCCCNC(=O)c1ccc2c(c1)NC(=O)C(CS(=O)(=O)Cc1ccc(C)cc1)N2` (stereo unspecified), the activation is inactive: -3.24%.

For `Cc1ccc(C(=O)Nc2ccc3oc(-c4ccccc4C)nc3c2)cc1`, the activation is active: 75.9%. Turning to `Cc1cccc(C)c1NC(=O)CN1CCCCCC1`, the activation is inactive: 3.5%. The value for `Cc1cc(NC(=O)c2cccn2-c2nnc(N3CCCCC3)s2)ccc1Br` was inactive: -30.8%; that for `CCN1CCN(c2oc(/C=C/c3cc(OC)c(OC)c(OC)c3)nc2C#N)CC1` was inactive: -0.347%. Turning to `CC(C)C(=O)OCc1cc(=O)n2nc(C3CC3)sc2n1`, the activation was inactive: 6.23%. `CCCCN(C)S(=O)(=O)c1ccc(C(=O)Nc2ccc(-c3nc4ccc(C)cc4s3)cc2)cc1`: the activation was inactive: -5.42%. As for `COc1cc(OC)c(C2C(C(=O)Nc3ccccc3)=C(C)Nc3ncnn32)cc1OC` (stereo unspecified), the figure is inactive: 10.3%.

For the compound `COc1ccc(-c2noc(CC(=O)Nc3ccc(C)c(F)c3)n2)cc1`, the activation was inactive: 28%.

With `CCc1ccc(C2c3c(oc4cc(C)c(C)cc4c3=O)C(=O)N2c2nc(C)c(C(=O)OC)s2)cc1` (stereo unspecified), the activation was inactive: 3.87%. As for `CCC1CN(C(=O)Nc2cc(Cl)c(OC)cc2OC)c2ccccc2O1` (stereo unspecified), the figure is inactive: -27.6%. The value for `Cc1cc(C)cc(NC(=O)CSc2nc3sc4c(c3c(=O)[nH]2)CCCC4)c1` was inactive: -5.64%; that for `Cc1cc(Cl)ccc1NC(=O)CCCn1nc(C)c2c(C)n(-c3ccccc3)nc2c1=O` was inactive: 3.51%. As for `Cc1c(Cl)cccc1NC(=O)Cn1c(=O)n(Cc2nc(-c3ccccc3)no2)c(=O)c2cc3c(cc21)OCO3`, the figure is inactive: -5.51%; as for `CCc1nn(CC(=O)NCCCc2ccccc2)c(=O)c2cc3ccccc3n12`, inactive: 0.276%. Regarding `CSc1ccc(CCNC(=O)c2cc3cc4cc(C)ccc4nc3s2)cc1`, the activation is inactive: -11.8%.

As to `Cc1ccc(Cn2c(=O)c3cccnc3n(CC(=O)Nc3cc(Cl)ccc3C)c2=O)cc1`, the activation was inactive: -1.96%. As for `CCCC(=O)Nc1cccc(-c2cn3c(C)csc3n2)c1`, the activation is inactive: -12.7%. As for `COC(=O)c1sccc1S(=O)(=O)N(CC(=O)Nc1ccccc1)c1ccccc1`, the figure is inactive: -11.3%.
